Over roughly 1,800 sequences, “median log2 fold change of GCK-ALFA target abundance (FLAG IP / Myc IP barcode read proportion)” has its median near 0.14; the lowest 2% begin near -0.84. Some of the results follow.
T1: TRAF2, Q12933
T1 chain: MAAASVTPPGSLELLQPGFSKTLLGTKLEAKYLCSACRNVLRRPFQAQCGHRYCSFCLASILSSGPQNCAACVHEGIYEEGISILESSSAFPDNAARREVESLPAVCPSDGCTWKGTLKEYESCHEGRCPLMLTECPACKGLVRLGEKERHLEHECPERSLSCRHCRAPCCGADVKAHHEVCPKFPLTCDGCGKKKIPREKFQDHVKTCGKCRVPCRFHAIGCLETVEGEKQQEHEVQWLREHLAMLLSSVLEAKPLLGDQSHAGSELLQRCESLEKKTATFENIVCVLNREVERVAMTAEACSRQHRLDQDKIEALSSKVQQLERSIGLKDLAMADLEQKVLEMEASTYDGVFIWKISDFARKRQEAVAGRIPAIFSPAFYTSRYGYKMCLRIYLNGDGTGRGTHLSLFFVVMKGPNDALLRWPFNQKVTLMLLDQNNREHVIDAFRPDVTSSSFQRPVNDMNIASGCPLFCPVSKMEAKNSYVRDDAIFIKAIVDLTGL

B1: traf2_out_16_104_1411 (protein)
chain: AAARDAEFDAIIAELEAIAERLGKIANKLYKKMETASPEEKKKLTDALVEASELRRRALEAAVAAREARATGGDLAAAKKTLAELEKEAKKVEEKAKKLF
B2: traf2_out_13_95_1117 (protein)
chain: SREVAKKIMEIADKMEEKRLKLLEELLKKAKAAGKAEEEIQAILEFAKHGTINEVIHRLRELAEKYPEMKAEFDATIAKLEEIRREAGREVAKILKEEEE
B3: traf2_out_1_18_938 (protein)
chain: MTPEELRFAQELAGKLHKALQDARENYAKDPEAAIKALKETAEKLIKEALEKKNELALISMSAIFDVYAREAKEEGKEKLAKAFEEIREKFKKAYEELKK
B4: traf2_out_5_63_2364 (protein)
chain: SERDRLTALAREADRLVQELLEAKKAGDEEKVEELIKRAVADPELARLVLGILKGEAKYYELLGNKPEEAKLAKELAERLEKAMAEAEAERAAAAAAAAA
B5: traf2_out_20_3_2225 (protein)
chain: EELEKEAEKKLEEALKKLKEIEKKADPKTKAKIKAMIKKLKEARELDPVDRLVVVSEVQRTLLELAQEAKAAGNEKLAKLLEEAAELLQKLKQLLYQIIE
B6: traf2_out_18_117_1780 (protein)
chain: AERERLIERAEELAERLDEAASRLGKVFLENYEKLTPEEKSEIMDVLADLTAVRREALLLIQRIRAGEVPVEEARRRLEELEVRADAAIAAAEARIARIE
B7: traf2_out_18_167_1821 (protein)
chain: SEETKKKIEELTDELVKVSEIRRLALQALEALRTDPAAAPAARAALIAALEEVPEFRPWAARLRAAPEAELPALLEEIAEEAGRRAQELYDEREELLKKS
B8: traf2_out_12_187_956 (protein)
chain: SVKDELLEAAKAAVKQAKKKLKEHADTDPEVQEFLEKLEELEKLLKKHPEIAADLLVAASAIIRYMDLIEEGAPAEQIEAARKKAKELLEEALKEAKKLE

Molecular target: T1, TRAF2, Q12933
Assay: median log2 fold change of GCK-ALFA target abundance (FLAG IP / Myc IP barcode read proportion) (log2 ratio); each designed protein is fused to an ALFA-tag nanobody in HEK293 cells to bring the named protein to FLAG-tagged glucokinase (GCK); Myc marks an untargeted standard; higher = target protein stabilised (more abundant)
Conditions: target protein: 3xFLAG-MCP-GCK-ALFA reporter; HEK293 landing pad (RPLP)
How it was run: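 An ALFA-nanobody-fused binder library was recombined into HEK293 landing-pad cells and induced with 2 μg mL^−1 doxycycline. Cells were transfected with a plasmid expressing a FLAG-tagged target and a Myc-tagged standard. After 48 h, lysates underwent anti-FLAG and anti-Myc immunoprecipitation, and circular RNA barcodes were reverse transcribed, amplified and sequenced. Target abundance is the per-binder median log2 ratio of FLAG to Myc barcode read proportions. Barcodes needed ≥10^−7 proportion in both replicates, binders ≥3 barcodes per replicate, and a 10^−6 pseudocount was added; the two replicates were pooled.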

B1 and B2 are within 0.2 log units of each other in “median log2 fold change” value: 0.0952 for the first, -0.0888 for the second.

Compared with B3, B4 is lower in “median log2 fold change” value: 0.0715 for the first, -0.212 for the second.

B5 and B6 are within 0.2 log units of each other in “median log2 fold change” value: -0.0581 for the first, -0.0221 for the second.

B7 and B8 are within 0.2 log units of each other in “median log2 fold change” value: 0.0984 for the first, 0.138 for the second.

From the supplement of paper PMC12632987
